Columns and labels:
[1] = target: human ALPP expressed on CHO cells (CHO-ALPP) (human, UniProt P05187 23-506); test: cell-based or functional assay
[2] = target: human ALPPL2 expressed on CHO cells (CHO-ALPPL2) (human, UniProt P10696 20-503); test: cell-based or functional assay
[3] = target: T1, human ALPI expressed on CHO cells (CHO-ALPI) (human, UniProt P09923 20-503); test: cell-based or functional assay
T1 sequence (looked up): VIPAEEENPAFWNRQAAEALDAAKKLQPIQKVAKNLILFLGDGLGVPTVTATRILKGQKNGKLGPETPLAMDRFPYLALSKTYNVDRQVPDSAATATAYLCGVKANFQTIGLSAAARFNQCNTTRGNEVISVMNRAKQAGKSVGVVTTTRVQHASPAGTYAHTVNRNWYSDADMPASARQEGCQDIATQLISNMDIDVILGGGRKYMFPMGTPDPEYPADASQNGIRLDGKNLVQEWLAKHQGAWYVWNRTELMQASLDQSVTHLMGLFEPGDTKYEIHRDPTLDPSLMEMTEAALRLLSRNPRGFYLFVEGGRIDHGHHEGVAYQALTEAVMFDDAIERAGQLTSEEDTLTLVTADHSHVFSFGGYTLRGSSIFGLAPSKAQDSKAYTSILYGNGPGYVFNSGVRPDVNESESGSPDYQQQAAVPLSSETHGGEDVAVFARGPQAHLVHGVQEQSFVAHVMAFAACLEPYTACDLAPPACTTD

[4] = target: T2, human ALPL expressed on CHO cells (CHO-ALPL) (human, UniProt P05186 18-501); test: cell-based or functional assay
T2 sequence (looked up): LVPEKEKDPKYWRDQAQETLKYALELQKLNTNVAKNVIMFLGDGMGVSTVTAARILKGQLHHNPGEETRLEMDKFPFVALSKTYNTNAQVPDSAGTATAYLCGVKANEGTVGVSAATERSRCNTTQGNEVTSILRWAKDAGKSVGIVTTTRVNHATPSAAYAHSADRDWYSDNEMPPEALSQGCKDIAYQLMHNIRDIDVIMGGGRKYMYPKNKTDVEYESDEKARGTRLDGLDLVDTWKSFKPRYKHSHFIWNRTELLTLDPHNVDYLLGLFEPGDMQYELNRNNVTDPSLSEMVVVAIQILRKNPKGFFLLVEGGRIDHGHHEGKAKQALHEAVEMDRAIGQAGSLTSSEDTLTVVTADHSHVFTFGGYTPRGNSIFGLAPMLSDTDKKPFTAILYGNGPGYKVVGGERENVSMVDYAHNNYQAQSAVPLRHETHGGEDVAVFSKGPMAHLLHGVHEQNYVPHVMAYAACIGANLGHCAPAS

[5] = target: T3, Human ALPP (leucine zipper) (human); test: BLI, KD 1:1 (Fc fusion captured on AHC sensor)
T3 construct: Soluble human ALPP fused to a disulphide stabilised leucine zipper and a His tag; The whole entry is the construct; also called hALPP; PLAP
T3 chain: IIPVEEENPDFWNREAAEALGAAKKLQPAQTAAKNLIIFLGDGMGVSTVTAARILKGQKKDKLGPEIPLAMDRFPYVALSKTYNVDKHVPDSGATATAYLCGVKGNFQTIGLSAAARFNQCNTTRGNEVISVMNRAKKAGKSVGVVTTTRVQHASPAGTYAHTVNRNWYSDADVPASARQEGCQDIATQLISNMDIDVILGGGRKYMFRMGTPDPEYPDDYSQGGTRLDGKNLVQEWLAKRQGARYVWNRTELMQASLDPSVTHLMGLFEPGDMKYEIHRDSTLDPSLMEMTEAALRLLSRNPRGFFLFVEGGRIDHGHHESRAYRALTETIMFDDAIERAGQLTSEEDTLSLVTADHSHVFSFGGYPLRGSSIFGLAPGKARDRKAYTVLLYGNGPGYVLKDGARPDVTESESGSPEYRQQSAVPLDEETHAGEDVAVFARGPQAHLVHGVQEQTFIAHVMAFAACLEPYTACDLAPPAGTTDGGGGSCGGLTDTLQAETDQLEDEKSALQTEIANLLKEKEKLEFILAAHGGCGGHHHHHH
Description: (§1) Binding kinetics were determined using the Biolayer Interferometry (BLI) Octet K2 or R4 system (Sartorius). […] For KD apparent measurements, the ALPP proteins were immobilised in sodium acetate pH5 buffer to AR2G sensors using amine coupling. To measure 1:1 interactions, AHC biosensors were used to immobilise Fc-fused proteins. All assays were conducted in HBS-EP with a plate temperature of 25° C. Ka (M⁻¹s⁻¹), Kd (s⁻¹) and KD (nM) values were determined using Octet Data Analysis High Throughput software (Sartorius) for Biolayer Interferometry.

[6] = target: T4, Human ALPPL2 (leucine zipper) (human); test: BLI, KD 1:1 (Fc fusion captured on AHC sensor)
T4 construct: Soluble human ALPPL2 fused to a disulphide stabilised leucine zipper and a His tag; The whole entry is the construct; also called hALPPL2; ALPG
T4 chain: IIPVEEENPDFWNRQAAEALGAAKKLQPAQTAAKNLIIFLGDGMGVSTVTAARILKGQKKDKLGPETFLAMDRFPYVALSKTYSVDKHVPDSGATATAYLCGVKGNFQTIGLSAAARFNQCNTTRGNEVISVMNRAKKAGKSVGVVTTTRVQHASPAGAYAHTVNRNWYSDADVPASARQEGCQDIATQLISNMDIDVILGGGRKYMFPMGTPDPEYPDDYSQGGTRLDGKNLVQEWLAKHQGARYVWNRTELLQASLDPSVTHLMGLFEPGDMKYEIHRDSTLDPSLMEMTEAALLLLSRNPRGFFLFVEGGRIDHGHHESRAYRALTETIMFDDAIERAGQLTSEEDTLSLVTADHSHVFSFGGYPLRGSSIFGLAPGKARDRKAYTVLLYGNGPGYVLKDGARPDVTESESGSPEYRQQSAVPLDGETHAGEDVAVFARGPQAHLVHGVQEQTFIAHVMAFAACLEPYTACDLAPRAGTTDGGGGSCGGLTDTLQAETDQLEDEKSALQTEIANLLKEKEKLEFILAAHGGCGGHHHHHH
Description: as §1

[7] = target: T3, Human ALPP (leucine zipper); test: BLI, KD app (antigen immobilised on AR2G sensor)
Description: as §1

[8] = target: T4, Human ALPPL2 (leucine zipper); test: BLI, KD app (antigen immobilised on AR2G sensor)
Description: as §1

ALPI His = target: T5, ALPI His (human, UniProt P09923 20-503); test: BLI
T5 construct: Soluble ALPI with a C-terminal G4S-His6; also called hALPI; ALPI His homodimer
T5 sequence: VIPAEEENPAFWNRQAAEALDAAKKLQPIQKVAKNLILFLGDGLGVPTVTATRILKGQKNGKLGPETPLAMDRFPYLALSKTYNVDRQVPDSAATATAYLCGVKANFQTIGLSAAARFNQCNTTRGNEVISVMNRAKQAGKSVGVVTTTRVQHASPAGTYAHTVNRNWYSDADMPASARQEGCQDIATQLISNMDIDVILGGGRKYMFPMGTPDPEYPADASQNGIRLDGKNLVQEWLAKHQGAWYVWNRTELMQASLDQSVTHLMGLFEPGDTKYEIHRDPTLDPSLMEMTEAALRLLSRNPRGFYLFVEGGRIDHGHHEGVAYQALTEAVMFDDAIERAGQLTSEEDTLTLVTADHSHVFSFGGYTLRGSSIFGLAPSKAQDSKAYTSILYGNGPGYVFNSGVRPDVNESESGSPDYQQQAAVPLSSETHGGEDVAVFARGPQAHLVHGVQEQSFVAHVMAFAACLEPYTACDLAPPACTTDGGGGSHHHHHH
Description: as §1

[9] = target: T6, Human ALPL (leucine zipper) (human); test: BLI
T6 construct: Soluble human ALPL fused to a disulphide stabilised leucine zipper and a His tag; also called hALPL; TNAP
T6 chain: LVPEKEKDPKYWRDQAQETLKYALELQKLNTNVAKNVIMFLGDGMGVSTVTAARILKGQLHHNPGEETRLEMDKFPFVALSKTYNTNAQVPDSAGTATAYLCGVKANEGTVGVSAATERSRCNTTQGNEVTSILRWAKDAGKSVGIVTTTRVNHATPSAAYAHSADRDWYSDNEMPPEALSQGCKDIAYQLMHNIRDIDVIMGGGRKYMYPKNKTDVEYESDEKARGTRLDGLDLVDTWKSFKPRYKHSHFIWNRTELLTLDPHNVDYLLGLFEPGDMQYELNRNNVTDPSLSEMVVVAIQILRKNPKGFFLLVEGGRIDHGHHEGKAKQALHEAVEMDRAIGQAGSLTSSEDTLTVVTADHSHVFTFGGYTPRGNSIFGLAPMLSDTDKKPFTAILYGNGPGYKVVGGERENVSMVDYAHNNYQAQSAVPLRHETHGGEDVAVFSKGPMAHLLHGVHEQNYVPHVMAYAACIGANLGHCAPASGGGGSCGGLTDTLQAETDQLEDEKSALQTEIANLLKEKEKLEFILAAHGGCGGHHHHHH
Description: as §1

B1: E06 linker Cys-hFc-vcPAB-MMAE (S442C) (Fc fusion)
chain: QVHLVESGGGLVQAGGSLRLSCAASRRSFSEYAMGWFRQAPGKEREFVAAIGWSGVIEYADSVKGRFTISRDNAKDTVYLQMNSLKPEDTAVYYCAAGLGIRVVSQTPAYWGQGTQVTVSSGCGGSGGGGSGGGGS[human IgG1 Fc with changes not spelt out]
modifications: MC-vc-PAB-MMAE on the linker Cys and on Cys 442 (S442C, EU numbering); DAR 4.1
cell killing IC50 @ 96 h, CHO-ALPP cells (Cell Titre Glo) [1]: 56.7 nM
cell killing IC50 @ 96 h, CHO-ALPPL2 cells (Cell Titre Glo) [2]: 43.7 nM
cell killing IC50 @ 96 h, CHO-ALPI cells (Cell Titre Glo) [3]: > 592 nM
cell killing IC50 @ 96 h, CHO-ALPL cells (Cell Titre Glo) [4]: > 592 nM

B2: D10 E06-hFc (S239C), [G4S]3 linkers (Fc fusion)
chain 1: QVQLVESGGGLVQPGGSLRLSCAASGSIFSVNTMGWYRQAPGKQRDLVAVATSGGTIHYADSVKGRFTISRDNAKNTVYLQMNSLKPEDTAVYYCNLVVPYGMIAGDHDYWGQGTKVTVSSGGGGSGGGGSGGGGS[human IgG1 Fc with C220S S239C T366Y (EU numbers) not spelt out]
chain 2: QVHLVESGGGLVQAGGSLRLSCAASRRSFSEYAMGWFRQAPGKEREFVAAIGWSGVIEYADSVKGRFTISRDNAKDTVYLQMNSLKPEDTAVYYCAAGLGIRVVSQTPAYWGQGTQVTVSSGGGGSGGGGSGGGGS[human IgG1 Fc with C220S S239C Y407T (EU numbers) not spelt out]
notes: Biparatopic knobs-into-holes heterodimer; also called #610
Kd [5]: < 0.01 nM
koff [5]: < 1e-07 s⁻¹
kon [5]: 494000 M⁻¹ s⁻¹
Kd [6]: < 0.01 nM
koff [6]: < 1e-07 s⁻¹
kon [6]: 712000 M⁻¹ s⁻¹
Kd [7]: < 0.01 nM
koff [7]: < 1e-07 s⁻¹
kon [7]: 356000 M⁻¹ s⁻¹
Kd [8]: 0.192 nM
koff [8]: 6.36e-05 s⁻¹
kon [8]: 331000 M⁻¹ s⁻¹
binding result (ALPI His): no binding
binding result [9]: no binding

B3: D10 E10-hFc (S239C), [G4S]3 linkers (Fc fusion)
chain 1: QVQLVESGGGLVQPGGSLRLSCAASGSIFSVNTMGWYRQAPGKQRDLVAVATSGGTIHYADSVKGRFTISRDNAKNTVYLQMNSLKPEDTAVYYCNLVVPYGMIAGDHDYWGQGTKVTVSSGGGGSGGGGSGGGGS[human IgG1 Fc with C220S S239C T366Y (EU numbers) not spelt out]
chain 2: QVQLVESGGGLVQAGGSLRLSCAVSGRALSDYNIGWFRQAPGKEREFVARKTWDGSSTRYDDSVKGRFTVSIEDAKNTAYLQMSSLKTEDTAVYYCAAGRYSRARGWEYDYWGQGTQVTVSSGGGGSGGGGSGGGGS[human IgG1 Fc with C220S S239C Y407T (EU numbers) not spelt out]
notes: Biparatopic knobs-into-holes heterodimer; also called #607
Kd [5]: < 0.01 nM
koff [5]: < 1e-07 s⁻¹
kon [5]: 445000 M⁻¹ s⁻¹
Kd [6]: < 0.01 nM
koff [6]: < 1e-07 s⁻¹
kon [6]: 678000 M⁻¹ s⁻¹
Kd [7]: < 0.01 nM
koff [7]: < 1e-07 s⁻¹
kon [7]: 402000 M⁻¹ s⁻¹
Kd [8]: 0.286 nM
koff [8]: 7.64e-05 s⁻¹
kon [8]: 268000 M⁻¹ s⁻¹
binding result (ALPI His): no binding
binding result [9]: no binding

B4: D10 F05-hFc (S239C), [G4S]3 linkers (Fc fusion)
chain 1: QVQLVESGGGLVQPGGSLRLSCAASGSIFSVNTMGWYRQAPGKQRDLVAVATSGGTIHYADSVKGRFTISRDNAKNTVYLQMNSLKPEDTAVYYCNLVVPYGMIAGDHDYWGQGTKVTVSSGGGGSGGGGSGGGGS[human IgG1 Fc with C220S S239C T366Y (EU numbers) not spelt out]
chain 2: QVQLVESGGGLVQAGGSLRLSCAASGRAFGDYNIGWFRQAPGKEREFVARRTWDGSSTRYDDSVKGRFTVSIDNAKNTAYLQMNSLKTEDTAVYYCAAGRYSRVRGWEYDYWGQGTQVTVSSGGGGSGGGGSGGGGS[human IgG1 Fc with C220S S239C Y407T (EU numbers) not spelt out]
notes: Biparatopic knobs-into-holes heterodimer; also called #608
Kd [5]: < 0.01 nM
koff [5]: < 1e-07 s⁻¹
kon [5]: 389000 M⁻¹ s⁻¹
Kd [6]: < 0.01 nM
koff [6]: < 1e-07 s⁻¹
kon [6]: 442000 M⁻¹ s⁻¹
Kd [7]: 0.014 nM
koff [7]: 4.82e-06 s⁻¹
kon [7]: 342000 M⁻¹ s⁻¹
Kd [8]: 0.236 nM
koff [8]: 0.000144 s⁻¹
kon [8]: 609000 M⁻¹ s⁻¹
binding result (ALPI His): no binding
binding result [9]: no binding

Source: patent US20260216242A1 (ALMAC DISCOVERY, published 2026)
